Test results published in PubChem BioAssay AID504466 (National Center for Advancing Translational Sciences (NCATS), 2011).
The whole screen tested about 330,000 compounds, of which about 4,200 (1.3%) were called active. Inconclusive results, whose numbers are uncertain, are shown with a selection of clear calls. The call rests on the fitted dose curve; in most records, active means well fitted activation curve with a large enough effect; inconclusive means small, poorly fitted or top-dose-only effect; inactive means no such curve, though single readings can be large or run the other way. Where the call is inconclusive, the potency comes from a doubtful curve fit.
Potency means the concentration at half of the fitted maximal effect; tags describe the fitted curve by direction and shape.

Experiment: qHTS screen for small molecules that induce genotoxicity in human embryonic kidney (HEK293T) cells expressing luciferase-tagged ELG1; further: nearly all actives have a fitted effect of over 60% in size
Details: HEK293T ELG1-luciferase reporter, luminescence, 16 h; series mostly up to 46 µM
Procedure, shortened: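 ELG1-luciferase HEK293T cells, 2,000/well; compound pinned in; 16 hr, 37 °C, 5% CO2; ONE-Glo, 30 min RT; luminescence on CCD imager.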
With `Cc1ccc(O)c(NC(=S)NC(=O)CC(C)C)c1` the Potency was inconclusive: 23.1 µM [activator, partial curve, poor fit].
In the case of `COc1ccc(/C=C(/NC(=O)c2ccco2)C(=O)Nc2ccc(C(=O)O)cc2)cc1`, the Potency was “inactive”.
For `COc1ccc(N(CC(=O)NC2CCCCCC2)S(=O)(=O)c2ccc(C)cc2)cc1OC`, the Potency was inconclusive: 32.6 µM [activator, partial curve, poor fit].
For `Cc1cc(C)c(NC(=O)COc2nncc3ccccc23)c(C)c1`, the Potency was inconclusive: 29.1 µM [activator, partial curve, poor fit].
With `c1ccc2cc(-c3cc4ccccn4c3)ccc2c1` the Potency was active: 3.66 µM.
For `Fc1ccccc1COc1ccc(/C=N/NC(=S)NCc2ccccc2)cc1`, the Potency was “inactive”.
With `CC(Sc1ccccc1F)C(=O)Nc1ccc2c(c1)OCCO2` (configuration not stated) the Potency was inconclusive: 8.2 µM [activator, single point].
For `Cc1ccc2nc(-c3ccc(SCC(=O)Nc4ccc5c(c4)OCCO5)nc3)[nH]c2c1`, the Potency was inconclusive: 2.59 µM [activator, full curve].
In the case of `CCNC(=S)NNC(=O)c1cc(-c2cccc(OC)c2)nc2ccccc12`, the Potency was inconclusive: 32.6 µM [activator, partial curve, poor fit].
For `c1ccc(C2Nc3ccccc3-c3nc4ccccc4n32)cc1` (configuration not stated), the Potency was inconclusive: 23.1 µM [activator, single point].
In the case of `O=C(COC(=O)/C=C/c1ccc(C(F)(F)F)cc1)NC1CCCC1`, the Potency was “inactive”.
In the case of `Nc1nc2nccc(-c3ccc(Cl)cc3)n2n1`, the Potency was inconclusive: 20.6 µM [activator, partial curve, poor fit].
In the case of `Cc1c(/C(O)=C2\C(=O)C(=O)N(CCN(C)C)C2c2ccco2)cnn1-c1ccccc1` (configuration not stated), the Potency was active: 9.2 µM.
In the case of `CNc1nc(Nc2ccc(C)c(Cl)c2)nc(N)c1[N+](=O)[O-]`, the Potency was active: 10.3 µM.
For `O=C(/C=C/c1ccccc1Cl)Nc1cccc(O)c1`, the Potency was inconclusive: 5.8 µM [activator, single point].
With `NC(=O)c1c(NC(=O)C2CCCO2)sc2c1CCCCC2` (configuration not stated) the Potency was inconclusive: 23.1 µM [activator, partial curve, poor fit].
With `COc1cc(NC(=O)c2cccs2)ccc1NC(=O)c1cc2ccccc2o1` the Potency was inconclusive: 16.4 µM [activator, partial curve, poor fit].
For `Cn1c(C(=O)Nc2ccc3c(c2)OCO3)cc2sccc21`, the Potency was inconclusive: 2.59 µM [activator, partial curve].
In the case of `COc1cc(CO)ccc1OCC(=O)N1CCc2ccccc21`, the Potency was “inactive”.
In the case of `CC(C)Cc1ccc(C(=O)NCCOc2ccccc2)o1`, the Potency was active: 3.26 µM.
With `O=C(Nc1cccnc1N1CCOCC1)c1cc2ccccc2oc1=O` the Potency was inconclusive: 25.9 µM [activator, single point].
In the case of `C=CCN(CC=C)S(=O)(=O)c1ccc(C(=O)Nc2sc3c(c2C(N)=O)CCCCC3)cc1`, the Potency was inconclusive: 9.2 µM [activator, partial curve, poor fit].
With `Cc1ccccc1C(=O)N/N=C/c1ccccn1` the Potency was active: 25.9 µM.
For `CCOC(=O)c1cccc(NC(=O)CCc2nc(-c3ccccc3F)no2)c1`, the Potency was “inactive”.
In the case of `CCOc1ccccc1NS(=O)(=O)c1c(C)noc1C`, the Potency was active: 23.1 µM.
With `COc1ccc(Nc2nc(N)nc(CSc3nccn3C)n2)cc1` the Potency was inconclusive: 8.2 µM [activator, partial curve].
With `Cc1nnc(NC(=O)c2cc3ccccc3o2)s1` the Potency was inconclusive: 23.1 µM [activator, single point].
For `CC(C)c1ccc(/C=C/C2=NNC(=O)CC2)cc1`, the Potency was inconclusive: 2.51 µM [activator, full curve].
With `CC1=NN(c2ccccc2)C(=O)C1N=Nc1cccc(O)c1` (configuration not stated) the Potency was inconclusive: 13 µM [activator, partial curve].
With `O=C(Nc1ccccc1Cl)NC1CCCCCCC1` the Potency was inconclusive: 13 µM [activator, partial curve, poor fit].
For `Cc1cccc(NC(=O)c2ccoc2C)n1`, the Potency was inconclusive: 18.4 µM [activator, partial curve].
With `CCN1C(=O)S/C(=C/c2ccsc2)C1=O` the Potency was inconclusive: 20.6 µM [activator, partial curve].
In the case of `Cc1ccsc1/C=N/Nc1ncnc2nc[nH]c12`, the Potency was active: 14.6 µM.
For `Cc1cccc(Oc2ccc(N)cc2)c1`, the Potency was inconclusive: 29.1 µM [activator, partial curve, poor fit].
In the case of `CN(C)CCN(C(=O)c1ccc(S(=O)(=O)N(C)C)cc1)c1nc2cc3c(cc2s1)OCCO3`, the Potency was inconclusive: 14.6 µM [activator, partial curve, poor fit].
For `O=C(O)COc1ccc(/C=C/C(=O)c2ccc(C3CCCCC3)cc2)cc1`, the Potency was “inactive”.
With `O=C(Nc1ccc(C(=O)N2CCOCC2)cc1)Nc1cccc2ccccc12` the Potency was inconclusive: 18.3 µM [activator, partial curve, poor fit].
For `O=C(/C=C/Nc1ccc(Br)cn1)c1cccc(OC(F)F)c1`, the Potency was inconclusive: 5.8 µM [activator, partial curve, poor fit].
With `O=C(NNC(=O)c1cccc(-n2cnnn2)c1)c1ccccc1` the Potency was “inactive”.
With `COc1ccccc1C(=O)Nc1ccnn1C1CCN(CCCc2ccccc2)CC1` the Potency was “inactive”.
For `Cc1cc(C(=O)CCl)c(C)n1CCc1ccc(Cl)cc1`, the Potency was inconclusive: 23.1 µM [activator, single point].
In the case of `CCN(CC)c1ccc(/C=N/NC(=O)c2cnccn2)c(O)c1`, the Potency was active: 18.3 µM.
For `CC1CC(C)CN(C(=O)CNC(=O)c2ccc3ccccc3c2)C1` (configuration not stated), the Potency was “inactive”.
For `Cc1ccc(-c2n[nH]c3c2CCC3)cc1`, the Potency was inconclusive: 18.4 µM [activator, partial curve, poor fit].
For `Cc1cccc2nc(=S)n(C(=O)c3ccco3)n12`, the Potency was inconclusive: 1.64 µM [activator, full curve, poor fit].
For `Cc1sc2ncn(CC(=O)NCC(=O)N3CCN(c4ccc(F)cc4)CC3)c(=O)c2c1C`, the Potency was “inactive”.
In the case of `COc1ccc(C(=O)Nc2nc(C)c(C(=O)N(C)C)s2)cc1OC`, the Potency was inconclusive: 16.4 µM [activator, partial curve, poor fit].
